Our source for the binding signal values is PMC12820563, “FoxP3 forms a head-to-head dimer in vivo and stabilizes its multimerization on adjacent microsatellites”.

The list shows a part of the results.

The target of the test is T1, MBP-FoxP1dN (Mus musculus, UniProt P58462 326-579).
T1 sequence: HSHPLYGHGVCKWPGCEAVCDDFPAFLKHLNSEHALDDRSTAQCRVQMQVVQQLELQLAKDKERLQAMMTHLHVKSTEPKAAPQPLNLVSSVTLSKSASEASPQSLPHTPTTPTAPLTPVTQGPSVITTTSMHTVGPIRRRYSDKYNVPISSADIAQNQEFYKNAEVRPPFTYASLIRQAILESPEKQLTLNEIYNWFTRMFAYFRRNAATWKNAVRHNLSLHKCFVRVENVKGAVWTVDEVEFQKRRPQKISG
In words: PD-seq (MBP pull-down with sequencing); 20 mM Tris-HCl pH 7.5, 100 mM NaCl, 1.5 mM MgCl2, 0.4 uM protein, 0.1 uM dsDNA library, 30 min, room temperature, amylose pull-down; high values mean tight binding. The settings on record: protein: recombinant; tags: His6-MBP; chain copies: 2; dsDNA, one strand shown. In short, it runs like this: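 A degenerate double-stranded DNA library, filled in with Klenow, was added at 0.1 µM to 0.4 µM His6-MBP-tagged mouse FoxP3 or FoxP1 fragment lacking the N-terminus, expressed in E. coli. Incubation lasted 30 min at room temperature in Tris pH 7.5 buffer with NaCl and MgCl2, after which complexes were collected on amylose resin, washed three times, digested with proteinase K to free the DNA, barcoded by PCR and sequenced by Illumina. Binding is the pooled-replicate reads-per-million enrichment of pull-down over input.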
Consider “GATGATTGTTCTCCCAGCTGATGAATTACTCTACTCGAGTAAACAAATTTTCCTAATCTTTCTGTTCAAGCGCCATCTAC”, for which the binding signal is 1.08 RPM ratio (pull-down/input).

Regarding “GATGATTGTTCTCCCAGCTGATGAATTTGTGTTTTCGAGTAAACAAATTTTCCTAATCTTTCTGTTCAAGCGCCATCTAC”, the binding signal is 2.61 RPM ratio (pull-down/input).

With “GATGATTGTTCTCCCAGCTGATGAATTATGTGACTCGAGTAAACAAATTTTCCTAATCTTTCTGTTCAAGCGCCATCTAC”, the binding signal was 1.08 RPM ratio (pull-down/input).

With “GATGATTGTTCTCCCAGCTGATGAATTCCCCTACTCGAGTAAACAAATTTTCCTAATCTTTCTGTTCAAGCGCCATCTAC”, the binding signal was 0.809 RPM ratio (pull-down/input).

“GATGATTGTTCTCCCAGCTGATGAATTTCCGTAGTCGAGTAAACAAATTTTCCTAATCTTTCTGTTCAAGCGCCATCTAC”: the binding signal was 0.846 RPM ratio (pull-down/input).

For the sequence “GATGATTGTTCTCCCAGCTGATGAATTTAGACGTTCGAGTAAACAAATTTTCCTAATCTTTCTGTTCAAGCGCCATCTAC”, the binding signal is 1.01 RPM ratio (pull-down/input).

For “GATGATTGTTCTCCCAGCTGATGAATTTTTCTGGTCGAGTAAACAAATTTTCCTAATCTTTCTGTTCAAGCGCCATCTAC”, the binding signal was 0.947 RPM ratio (pull-down/input).

With “GATGATTGTTCTCCCAGCTGATGAATTTTCATCTTCGAGTAAACAAATTTTCCTAATCTTTCTGTTCAAGCGCCATCTAC”, the binding signal is 0.905 RPM ratio (pull-down/input).

For “GATGATTGTTCTCCCAGCTGATGAATTTGCCTGTTCGAGTAAACAAATTTTCCTAATCTTTCTGTTCAAGCGCCATCTAC”, the binding signal was 0.909 RPM ratio (pull-down/input).

Consider “GATGATTGTTCTCCCAGCTGATGAATTGTTTCGATCGAGTAAACAAATTTTCCTAATCTTTCTGTTCAAGCGCCATCTAC”, for which the binding signal is 1.09 RPM ratio (pull-down/input).

Take “GATGATTGTTCTCCCAGCTGATGAATTGAGGGTTTCGAGTAAACAAATTTTCCTAATCTTTCTGTTCAAGCGCCATCTAC”: the binding signal was 0.859 RPM ratio (pull-down/input).

As to “GATGATTGTTCTCCCAGCTGATGAATTAGCTATTTCGAGTAAACAAATTTTCCTAATCTTTCTGTTCAAGCGCCATCTAC”, the binding signal was 1.02 RPM ratio (pull-down/input).

Consider “GATGATTGTTCTCCCAGCTGATGAATTCAAGTTGTCGAGTAAACAAATTTTCCTAATCTTTCTGTTCAAGCGCCATCTAC”, for which the binding signal is 1.2 RPM ratio (pull-down/input).

For the sequence “GATGATTGTTCTCCCAGCTGATGAATTGATTGCGTCGAGTAAACAAATTTTCCTAATCTTTCTGTTCAAGCGCCATCTAC”, the binding signal is 1.24 RPM ratio (pull-down/input).

In the case of “GATGATTGTTCTCCCAGCTGATGAATTGTAGCTCTCGAGTAAACAAATTTTCCTAATCTTTCTGTTCAAGCGCCATCTAC”, the binding signal is 1.03 RPM ratio (pull-down/input).

On to “GATGATTGTTCTCCCAGCTGATGAATTTGAAGTATCGAGTAAACAAATTTTCCTAATCTTTCTGTTCAAGCGCCATCTAC”, for which the binding signal was 0.93 RPM ratio (pull-down/input).

For the sequence “GATGATTGTTCTCCCAGCTGATGAATTCACGCGATCGAGTAAACAAATTTTCCTAATCTTTCTGTTCAAGCGCCATCTAC”, the binding signal is 0.933 RPM ratio (pull-down/input).

In the case of “GATGATTGTTCTCCCAGCTGATGAATTAGGTGCATCGAGTAAACAAATTTTCCTAATCTTTCTGTTCAAGCGCCATCTAC”, the binding signal was 1.28 RPM ratio (pull-down/input).

With “GATGATTGTTCTCCCAGCTGATGAATTACTCAGATCGAGTAAACAAATTTTCCTAATCTTTCTGTTCAAGCGCCATCTAC”, the binding signal is 1.07 RPM ratio (pull-down/input).

As for “GATGATTGTTCTCCCAGCTGATGAATTCTCCGTTTCGAGTAAACAAATTTTCCTAATCTTTCTGTTCAAGCGCCATCTAC”, the binding signal is 0.851 RPM ratio (pull-down/input).

For “GATGATTGTTCTCCCAGCTGATGAATTACCAGAATCGAGTAAACAAATTTTCCTAATCTTTCTGTTCAAGCGCCATCTAC”, the binding signal was 1.17 RPM ratio (pull-down/input).

Take “GATGATTGTTCTCCCAGCTGATGAATTTAGGAGCTCGAGTAAACAAATTTTCCTAATCTTTCTGTTCAAGCGCCATCTAC”: the binding signal is 0.796 RPM ratio (pull-down/input).

In the case of “GATGATTGTTCTCCCAGCTGATGAATTCGCTTGTTCGAGTAAACAAATTTTCCTAATCTTTCTGTTCAAGCGCCATCTAC”, the binding signal was 0.927 RPM ratio (pull-down/input).

Consider “GATGATTGTTCTCCCAGCTGATGAATTTAGACGATCGAGTAAACAAATTTTCCTAATCTTTCTGTTCAAGCGCCATCTAC”, for which the binding signal is 0.941 RPM ratio (pull-down/input).

Turning to “GATGATTGTTCTCCCAGCTGATGAATTTCGCTTCTCGAGTAAACAAATTTTCCTAATCTTTCTGTTCAAGCGCCATCTAC”, the binding signal was 0.866 RPM ratio (pull-down/input).

For the sequence “GATGATTGTTCTCCCAGCTGATGAATTTGGGCGATCGAGTAAACAAATTTTCCTAATCTTTCTGTTCAAGCGCCATCTAC”, the binding signal was 0.894 RPM ratio (pull-down/input).

Turning to “GATGATTGTTCTCCCAGCTGATGAATTTATTATCTCGAGTAAACAAATTTTCCTAATCTTTCTGTTCAAGCGCCATCTAC”, the binding signal was 1.41 RPM ratio (pull-down/input).

Regarding “GATGATTGTTCTCCCAGCTGATGAATTGAGGTAGTCGAGTAAACAAATTTTCCTAATCTTTCTGTTCAAGCGCCATCTAC”, the binding signal was 0.86 RPM ratio (pull-down/input).

For the sequence “GATGATTGTTCTCCCAGCTGATGAATTGAGCTGATCGAGTAAACAAATTTTCCTAATCTTTCTGTTCAAGCGCCATCTAC”, the binding signal is 0.869 RPM ratio (pull-down/input).

Take “GATGATTGTTCTCCCAGCTGATGAATTCTGTGGCTCGAGTAAACAAATTTTCCTAATCTTTCTGTTCAAGCGCCATCTAC”: the binding signal was 0.917 RPM ratio (pull-down/input).

“GATGATTGTTCTCCCAGCTGATGAATTCTCGTAGTCGAGTAAACAAATTTTCCTAATCTTTCTGTTCAAGCGCCATCTAC”: the binding signal was 0.927 RPM ratio (pull-down/input).
